# Experimental data: PubChem BioAssay AID504466 (National Center for Advancing Translational Sciences (NCATS), 2011)
# Screen size: about 330,000 compounds; about 4,200 (1.3%) were called active. The shares of active, inactive and inconclusive entries below differ from those in the screen. The call rests on the fitted dose curve; in most records, active means well fitted activation curve with a large enough effect; inconclusive means small, poorly fitted or top-dose-only effect; inactive means no such curve, though single readings can be large or run the other way. A potency beside an inconclusive call is a rough fit, not a confirmed value.
# Assay: qHTS screen for small molecules that induce genotoxicity in human embryonic kidney (HEK293T) cells expressing luciferase-tagged ELG1; further: nearly all actives have a fitted effect of over 60% in size; on activity change, positive = activation: % of control where 0% means no effect
# Settings: HEK293T ELG1-luciferase reporter, luminescence, 16 h; series mostly up to 46 µM; activity change, positive = activation: at the top concentration
# Summary of the method: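 DMSO vehicle served as control against compound-treated ELG1-luciferase HEK293T cells; exposure lasted 16 hr at 37 °C and 5% CO2, followed by ONE-Glo luminescence detection after 30 min.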
# Potency means the concentration at half of the fitted maximal effect; tags describe the fitted curve by direction and shape.
SMILES,Potency,"activity change, positive = activation"
CC1=CN2C(=N)/C(=C/c3ccco3)C(=O)N=C2S1,"inconclusive: 4.11 µM [activator, full curve]",–
COc1cccc(CNc2ccc3c(c2)ncn3C)c1OC,–,inactive: 6.37%
Cc1cc(NC(=O)COC(=O)c2oc3c(ccc4ccccc43)c2C)no1,"inconclusive: 23.1 µM [activator, single point]",–
CC1CCN(S(=O)(=O)c2ccc3c(c2)c(=O)c(C(=O)NCc2ccco2)cn3C)CC1,–,inactive: -6.69%
COc1ccc(-c2csc3nc(-c4cccnc4)nc(Cl)c23)cc1OC,–,inactive: -2.62%
C/C(=N\Nc1ncc(Cl)cc1Cl)c1ccccn1,"inconclusive: 0.517 µM [activator, partial curve, poor fit]",–
O=C(O)c1ccc(Cn2nnc3sc4c(c3c2=O)CCCC4)cc1,"inconclusive: 13 µM [activator, partial curve]",–
O=C(Nc1ccc(Cl)cn1)c1ccc(Oc2ccccc2)cc1,"inconclusive: 2.91 µM [activator, partial curve]",–
O=C(Nc1ccccn1)C1COc2ccccc2O1 (stereo not given),"inconclusive: 13 µM [activator, partial curve, poor fit]",–
Cc1ccc(C(=O)Nc2cc3c(cc2Cl)OCCCO3)cc1,"inconclusive: 1.16 µM [activator, full curve]",–
O=C(NCc1ccco1)C(=O)NCC(c1ccco1)N1CCOCC1 (stereo not given),–,inactive: 2.39%
COCCNc1nc2sc3c(c2c(=O)n1Cc1ccco1)CCCCC3,"inconclusive: 11.6 µM [activator, partial curve]",–
COc1cccc(OC)c1C(=O)Nn1c(-c2cccs2)nc2ccccc2c1=O,–,inactive: -4.72%
O=C(CCCC(=O)N1CCN(c2ccccc2F)CC1)c1ccccc1,"inconclusive: 23.1 µM [activator, single point]",–
Cc1ccc(/C=N/NC(=O)c2ccc3ccccc3c2)s1,"inconclusive: 20.6 µM [activator, single point]",–
Fc1ccc(OCc2nnc(-c3ccccc3Br)o2)c(Cl)c1,active: 2.31 µM,–
O=C(CSc1ccc(-c2ccccn2)nn1)Nc1cccc(F)c1,"inconclusive: 29.1 µM [activator, single point]",–
Cc1cc(C(=O)NCCC2=CCCCC2)c(C)o1,"inconclusive: 2.06 µM [activator, full curve]",–
Cc1ccoc1C(=O)Nc1cccc2ccccc12,"inconclusive: 20.6 µM [activator, partial curve, poor fit]",–
CC(/C=N/NC(=O)c1nn(C)c(C)c1Br)=C\c1ccccc1,"inconclusive: 11.6 µM [activator, partial curve]",–
